This is an account of results in PMC12136788.

The list shows a part of the results.

The chains are these.
B1: chr8:41543231:41543332:+|3pUTR|ENSG00000147536|msi1|total|mutant (ssRNA)
RNA: GGGAGUUCUACAGUCCGACGAUCAAACCAUUAUUAAAUUUCCAUUCUGCAGCAGAAGGCACCUCUGGACGGCUCCCGGCUUGCCGUUUAAUGAAGUAUGUGCUCCCUGCUGUUAACCCGCAGCCCUCCCCAACUCUCCAGCAGCAACAGAGGAUUGAGCAUCA
B2: chr3:50299934:50300035:-|3pUTR|ENSG00000114378|unk|total|mutant (ssRNA)
RNA: GGGAGUUCUACAGUCCGACGAUCCGUUGCCCAAGGUUGCACAGCAAGAAAAGGGAGAAGUUGAGAUUCAAACCCAGGCUGUCCCGCUCCGGGGGUACAGCCCUUGCACUCCUACUGAGUUUGUGGUAACCAGCCCUGCACGACCAACAGAGGAUUGAGCAUCA
B3: ENSG00000131238:stop:overlap|stop_codon|ENSG00000131238|stop_codon|NA|stop_codon (ssRNA)
RNA: GGGAGUUCUACAGUCCGACGAUCCUUCACCUCCCAUGAUCAAUCUGAUCUCGGUUGGGGGACAACAUCAAGUGCCUUGUGCAUAGUGGGUAUUCGAUACAUCAUUAUUGAAGGAGUGGAUAUUUGUCAUCUACCACUGUAGGUCAACAGAGGAUUGAGCAUCA
B4: chr6:107870184:107870285:-|3pUTR|ENSG00000025796|msi1|FALSE|bound_elsewhere (ssRNA)
RNA: GGGAGUUCUACAGUCCGACGAUCUAAUAUUUCCUAUAAAAGGGUGAAAGCAGUUUCUUUCUCUAUAACCUCAAUCACCAGUUUAGUGAGAGCCUUUCUUGGCAGGCAGGAGGCAGUGUCACUGAGGAUUUUUUUCAUUUACUUCAACAGAGGAUUGAGCAUCA
B5: chr5:139396562:139396955:-|CDS|ENSG00000170469|control|control|control (ssRNA)
RNA: GGGAGUUCUACAGUCCGACGAUCAGGGGUCCACAAGGUGGGGGCUUGUAGCCUAGGGGAGGAGCUGGGUCUUUGUUGUCUGGUAGGCACCACCGCUUCCUUUGGGUAUUUAAUCCCUUCCUAUAUAAACAGCCCUGGUUACCCCAACAGAGGAUUGAGCAUCA
B6: chr4:119293926:119294030:+|3pUTR|ENSG00000145390|unk|FALSE|unique (ssRNA)
RNA: GGGAGUUCUACAGUCCGACGAUCGAUGGAAUUUAAUUUUGCUCCUAGAAUUUUUGUCUUCAGAAUAUCUAGUUAAGAUAAAUUAGGCCUUUGACUAUUAUAGGUAUUCAUAAAUGCUACUUUAGCCAUGUAAGUUAAAAAGUUCAACAGAGGAUUGAGCAUCA
B7: chr1:117959336:117959438:+|CDS|ENSG00000065183|unk|FALSE|unique (ssRNA)
RNA: GGGAGUUCUACAGUCCGACGAUCGAUUAUCUCAAGAGGGAAUGCGAGGCAAAAAGUGAAGUUAUGUUUUUUGCUGAUGCUACUAGCCACUUGGAAGAGAAGAAGAGGAAGAGGAAAAAGAGGGAGAAGUUGAUUCUAACGUUGCAACAGAGGAUUGAGCAUCA
B8: chr14:71588152:71588260:+|CDS|ENSG00000197555|unk|total|mutant (ssRNA)
RNA: GGGAGUUCUACAGUCCGACGAUCGAAAACAUAAAAGAAUCCCGCCGUUCAAGCCAGGAAACCGAAACCUCAAGUUGCCUUGACCGCCUGUCCUCCAAAAGCAGUCCUGUGAGUCAGGGAAGUUCUGUCCGCCUCAAUUCCAAUCAACAGAGGAUUGAGCAUCA
B9: chr11:839720:840371:-|three_prime_utr|ENSG00000177700|control|control|control (ssRNA)
RNA: GGGAGUUCUACAGUCCGACGAUCACUCUGGAAGGAACCAUCCAGUAAAGGUCUUUCAGAACCACUAAGGUCCCAGCCCUCACUAGGAUGUCAGGAGCCAGGUCUAGGCCCAGCUUUCACACUGUGGCAGCCCAGUGAAGCAGACAACAGAGGAUUGAGCAUCA
B10: chr11:95129132:95129233:+|CDS|ENSG00000149218|msi1|FALSE|bound_elsewhere (ssRNA)
RNA: GGGAGUUCUACAGUCCGACGAUCAAUCCUGAAGAACAUUGUCUAUUUCCUGUGGUGUGUUACCAAGCAGGUGAUUAAUGGCAUAGAAAGUUGCCUUUACCGCCUGGGCUCAGCCACCAUCUCAUACUUCAUGGCCAUUGGGGACAACAGAGGAUUGAGCAUCA
B11: chr13:24435276:24435388:-|CDS|ENSG00000102699|unk|FALSE|unique (ssRNA)
RNA: GGGAGUUCUACAGUCCGACGAUCCAAAAGAAAAAUGGAAUUAUCUCAGCCAGAAGUUUCUGAAGAUUUUGAAGAGGAUGGCUUAGGUGUACUACCAGCUUUCACAUCAAAUUUGGAACGUGGAGGUGUGGAAAAGCUAUUGGACAACAGAGGAUUGAGCAUCA
B12: chr12:3284029:3284272:+|3pUTR|ENSG00000011105|msi1|FALSE|unique (ssRNA)
RNA: GGGAGUUCUACAGUCCGACGAUCCAUGUGGGUAUUCCCACAACAGGUUCUGCACACCCCAGUUAUUUCACAGACAUUCCUGCUAGAAACUGUCAGACAAAUACCUCUCUAGUUCGGAUGCUGCUCACUUUCCCCCUUGCUUCUCAACAGAGGAUUGAGCAUCA
B13: chr10:117282838:117282939:-|3pUTR|ENSG00000165650|unk|FALSE|bound_elsewhere (ssRNA)
RNA: GGGAGUUCUACAGUCCGACGAUCCCCCUUGUGUUAUUUUUCUUCCUCUUGGUUUUUGAAUUAGUGUUAAAUAGAAUACUGUCUAGAUUCUUAAAAUAUUUUCAUUUCCAUCAUGGUUAUAACAAAUUUGCUGCAUGCCCAAACCAACAGAGGAUUGAGCAUCA
B14: ENSG00000070961:be:win_4051|3pUTR|ENSG00000070961|bound_else_gene|NA|bound_elsewhere_windowed (ssRNA)
RNA: GGGAGUUCUACAGUCCGACGAUCAUUUCUGCUGUUGGCUGUUAAUAAUUUGGAUUAUUUAUGUUUAUAAAUGAUACAGAUCUGUUUACAAGGUUUGUAGAUACUUUUUUUGUUCCUGUUCAUAGAUGGGAAGCUUCCUUAUAACAACAGAGGAUUGAGCAUCA
B15: chr14:67647084:67651481:-|three_prime_utr|ENSG00000100568|control|control|control (ssRNA)
RNA: GGGAGUUCUACAGUCCGACGAUCGCUCGCCAUCCUGGGAGGCCUGGUUUACUACAAAUUCUUUCGCAGCCAUUGAACUUCUAUAGGGAAGGGUUUGUGGACCAGAACUUUGACCUUGUGAAUGCAUGAUGUUAGGGAUGUGGACAACAGAGGAUUGAGCAUCA
B16: ENSG00000070961:be:win_51|CDS|ENSG00000070961|bound_else_gene|NA|bound_elsewhere_windowed (ssRNA)
RNA: GGGAGUUCUACAGUCCGACGAUCUUUGAAGGAAGCUAAUCAUGAUGGAGACUUUGGAAUUACGCUCGCAGAGCUGCGGGCUCUCAUGGAGCUCAGGUCCACAGAUGCAUUACGAAAAAUACAGGAAAGCUAUGGAGAUGUCUACAACAGAGGAUUGAGCAUCA
B17: ENSG00000132661:stop:overlap|stop_codon|ENSG00000132661|stop_codon|NA|stop_codon (ssRNA)
RNA: GGGAGUUCUACAGUCCGACGAUCCCAGCAACACAGUGUGGAAGAUCGCAAGUGACUGCUUCCGCUUCCAGGACUGGGCCAGCUAGUGGGGGUGGCAGAGGUCUCUUUGCUUCAUUCAGCCCUAGCUCUGUAGAGAAAUGCAAACAACAGAGGAUUGAGCAUCA
B18: chr1:64777895:64778004:+|CDS|ENSG00000162437|unk|FALSE|bound_elsewhere (ssRNA)
RNA: GGGAGUUCUACAGUCCGACGAUCGGAUUUGUGGAAUACAUGAAAAAGGACUUUGCUGCAAAGGCUAGACUGGAGCUAUUGGGUAGACAGUUGGGAGCAUCAGCACUCUUUGCACAAUGGAUGGAUGUUAAUCUAUUGGCUUCACAACAGAGGAUUGAGCAUCA
B19: chr9:134030564:134030586:-|3pUTR|ENSG00000169925|msi1_unk|total|mutant (ssRNA)
RNA: GGGAGUUCUACAGUCCGACGAUCCCUCUGACAGUCUUUUGGGAAAGAGUAACACCCACAUACAGAAUUUGUCACAUCCAGAGCCGCACUGUUCCUUAAUACUGGCAUAAUGCUUCCAGGAAGUUUUUCUUUUUUAUAUUUAAACAACAGAGGAUUGAGCAUCA
B20: chr1:150960872:150960973:+|CDS|ENSG00000143379|unk|FALSE|unique (ssRNA)
RNA: GGGAGUUCUACAGUCCGACGAUCGGACUCCCACCCCCCAGAUCUUGGACCCCCACAUAUUCCUGUUCCUCCCUCAAUCCCUGUAGGUGGCUGCAAUCCACCUUCCUCCGAAGAGACACCCAAGAACAAGGUGGCCUCAUGGUUCAACAGAGGAUUGAGCAUCA
B21: chr4:56461171:56461272:+|3pUTR|ENSG00000128050|msi1|FALSE|bound_elsewhere (ssRNA)
RNA: GGGAGUUCUACAGUCCGACGAUCCUUCUGUAACCACAGUGACUACAAGUAGUUCUUUCUCUAUUGAAUUAUUAGGUCCAGAAUAGAAGAUGUCAUUGUACACUUUAUUUCCCUCACACUGUGUUAUGCUCUGAUGUGCUAUGCCAACAGAGGAUUGAGCAUCA
B22: chr6:143501988:143502101:-|CDS|ENSG00000001036|unk|FALSE|unique (ssRNA)
RNA: GGGAGUUCUACAGUCCGACGAUCUUCAUGUGGAGGAAAUCUUUUGAUGAAUAUUGGGCCCACACUAGAUGGCACCAUUUCUGUAGUUUUUGAGGAGCGACUGAGGCAAAUGGGGUCCUGGCUAAAAGUCAAUGGAGAAGCUAUCAACAGAGGAUUGAGCAUCA

For this test, the target named is MSI1 full-length (mouse, UniProt Q61474 1-362). Kind of test: nsRBNS (natural sequence RNA bind-n-seq); RBNS binding buffer (assumed for nsRBNS): 25 mM Tris pH 7.5, 150 mM KCl, 3 mM MgCl2, 0.01% Triton X-100, 500 ug/ml BSA, 20 U/ml SUPERase-In, 4 C; UNK is unkempt and MSI1 is Musashi-1; names of the RNAs are library labels; protein concentration not given here; high values mean tight binding.
Chain of UniProt Q61474 (Q61474 whole entry): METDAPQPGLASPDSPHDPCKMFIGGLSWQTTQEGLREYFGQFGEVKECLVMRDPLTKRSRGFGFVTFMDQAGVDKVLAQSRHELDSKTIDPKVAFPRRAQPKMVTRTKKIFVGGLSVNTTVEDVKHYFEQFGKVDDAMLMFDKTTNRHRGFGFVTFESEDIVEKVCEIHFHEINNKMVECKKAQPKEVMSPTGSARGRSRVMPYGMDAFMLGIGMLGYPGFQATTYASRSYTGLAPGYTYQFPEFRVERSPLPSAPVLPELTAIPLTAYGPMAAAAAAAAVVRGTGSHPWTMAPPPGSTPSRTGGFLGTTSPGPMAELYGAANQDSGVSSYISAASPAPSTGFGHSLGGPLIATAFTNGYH
B1 came in with a binding signal of 0.959 enrichment R.

With B2, the binding signal worked out at 0.353 enrichment R.

As for B3, the binding signal is 0.929 enrichment R. In turn, B4 gave a binding signal of 0.579 enrichment R.

Consider B5, for which the binding signal was 1.74 enrichment R. As to B6, the binding signal was found to be 7.25 enrichment R. Molecule B7 displayed a binding signal of 0.56 enrichment R.

On to B8, for which the binding signal was determined as 0.59 enrichment R.

Consider B9, for which the binding signal stood at 0.386 enrichment R.

Molecule B10 gave a binding signal of 0.347 enrichment R. Regarding B11, the binding signal is 0.305 enrichment R.

As for B12, the binding signal was determined as 0.685 enrichment R. With B13, the binding signal turned out to be 3.9 enrichment R. Regarding B14, the binding signal is 1.02 enrichment R.

B15 registered a binding signal of 0.606 enrichment R. In turn, B16 displayed a binding signal of 0.351 enrichment R. The molecule B17 returned a binding signal of 0.481 enrichment R. Take B18: the binding signal worked out at 0.468 enrichment R. In the case of B19 it was 0.526 enrichment R; in that of B20, 0.477 enrichment R. In turn, B21 had a binding signal of 1.03 enrichment R.

In the case of B22, the binding signal was determined as 0.735 enrichment R.
